From paper PMC4336329 (PLoS ONE, 2015)
Out of some 310,000 compounds screened, about 2,200 (0.71%) showed an effect of 50% or more. The effect is printed as a negative number. This is one part of the list.

molecular target: human ether-à-go-go-related gene (hERG) potassium channel (human, UniProt Q12809); assay: primary screen, population patch clamp on CHO cells stably expressing hERG
Sequence (Q12809 whole entry, looked up): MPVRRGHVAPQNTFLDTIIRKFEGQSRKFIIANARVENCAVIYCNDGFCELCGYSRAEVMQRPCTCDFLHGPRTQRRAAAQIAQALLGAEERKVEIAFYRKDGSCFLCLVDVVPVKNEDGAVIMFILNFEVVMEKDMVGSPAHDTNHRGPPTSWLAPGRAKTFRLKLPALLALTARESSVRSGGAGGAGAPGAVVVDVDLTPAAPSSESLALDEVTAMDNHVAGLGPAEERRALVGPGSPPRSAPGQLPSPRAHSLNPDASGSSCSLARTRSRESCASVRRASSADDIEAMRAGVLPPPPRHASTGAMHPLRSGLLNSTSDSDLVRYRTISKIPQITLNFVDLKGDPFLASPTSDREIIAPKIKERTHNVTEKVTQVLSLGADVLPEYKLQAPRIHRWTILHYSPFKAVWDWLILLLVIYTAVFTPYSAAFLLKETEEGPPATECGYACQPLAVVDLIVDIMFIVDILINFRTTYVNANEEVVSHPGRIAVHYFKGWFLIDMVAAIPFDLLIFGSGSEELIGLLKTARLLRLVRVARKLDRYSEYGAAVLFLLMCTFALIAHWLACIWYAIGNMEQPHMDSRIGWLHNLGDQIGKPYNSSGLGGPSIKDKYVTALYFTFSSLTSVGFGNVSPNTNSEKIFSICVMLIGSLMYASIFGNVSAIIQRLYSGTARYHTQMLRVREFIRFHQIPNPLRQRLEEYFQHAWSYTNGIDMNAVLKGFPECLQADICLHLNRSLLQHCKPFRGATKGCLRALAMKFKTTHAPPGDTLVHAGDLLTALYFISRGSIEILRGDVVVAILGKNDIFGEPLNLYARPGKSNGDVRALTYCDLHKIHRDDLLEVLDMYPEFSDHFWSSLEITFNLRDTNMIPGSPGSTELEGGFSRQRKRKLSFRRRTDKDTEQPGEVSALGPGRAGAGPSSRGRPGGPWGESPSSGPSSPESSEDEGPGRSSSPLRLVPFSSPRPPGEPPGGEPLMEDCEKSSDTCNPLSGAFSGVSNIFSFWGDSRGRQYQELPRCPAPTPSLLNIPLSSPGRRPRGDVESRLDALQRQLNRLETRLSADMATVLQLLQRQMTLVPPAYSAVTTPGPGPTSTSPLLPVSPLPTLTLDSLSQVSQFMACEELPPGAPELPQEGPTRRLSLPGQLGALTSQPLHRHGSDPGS

Structure (SMILES) | hERG current change (%, negative = inhibition) at 1uM [%]
CN(C)S(=O)(=O)c1cccc(NC(=O)COC(=O)C2CCN(C(=O)c3ccc(F)cc3)CC2)c1 | -9.92
O=C(CCCN1C(=O)/C(=C/c2ccccc2Cl)SC1=S)NNC(=O)c1ccc(Cl)cc1 | 4.67
COc1ccc(C(C(=O)NC2CCCCC2)N(C(=O)CCl)c2ccc(OC)cc2)cc1 (stereo not shown) | -4.47
CCOc1ccc(NC(=O)C2CCCN(S(=O)(=O)c3cnc[nH]3)C2)cc1 (stereo not shown) | 2.15
CN(C)CCNC(=O)c1c(O)c2c([nH]c1=O)CCCC2 | 12.4
CC(C)(C)c1csc(N(CCC#N)CCC#N)n1 | 3.19
CCC(C)(C)n1nnnc1C(c1cccnc1)N1CCC(Cc2ccccc2)CC1 (stereo not shown) | -2.9
O=C(Cc1ccc(Br)cc1)N1CCN(c2ccccc2)CC1 | 9.2
CC(=O)Nc1ccc(NC(=O)c2c(C)c(-c3ccccc3)nc3ccccc23)cc1 | 12.2
COCCCn1ccc(O)c(Cc2ccc(F)cc2)c1=O | -0.754
CCc1ccc(-c2cc(C)no2)cc1S(=O)(=O)NC(C)Cc1ccco1 (stereo not shown) | 10.7
Cc1nc2sc(C(c3cccc(F)c3)N3CCOCC3)c(O)n2n1 (stereo not shown) | 13.2
COC(=O)c1sc(-c2ccccc2)cc1NC(=O)C1CC1 | 8.56
Cc1ccc2nc(-c3ccc(NC(=O)COC(=O)c4ccc([N+](=O)[O-])o4)cc3)sc2c1 | 5.48
CC(=O)c1ccc(Nc2nc3ccccc3nc2NS(=O)(=O)c2cccs2)cc1 | 10.1
CCOc1ccc(N(CC)S(=O)(=O)c2ccc3c(c2)n(C)c(=O)c(=O)n3C)cc1 | -4.68
CC(=O)Nc1ccc(C(c2c(O)c3ccccc3oc2=O)c2c(C)n(C)n(-c3ccccc3)c2=O)cc1 (stereo not shown) | 8.13
CCC1(c2ccccc2)NC(=O)N(CC(=O)Nc2ccc(S(=O)(=O)Nc3ncccn3)cc2)C1=O (stereo not shown) | 4.41
CCn1cnc2c1c(=O)n(CC(=O)NN)c(=O)n2Cc1ccccc1 | 15.9
CN(C)CCNC(=O)c1sc2nc(-c3ccccc3)cc(C(F)(F)F)c2c1N | -2.34
CC(=O)Nc1ccc(NC(=O)C/C(C)=N/NC(=O)C(=O)Nc2ccc(C)c(Cl)c2)cc1 | 10.8
CCC(=O)Nc1ccc(C(=O)Nc2ccc3c(c2)C(=O)N(CC2CCCO2)C3=O)cc1 (stereo not shown) | 16.2
